The list shows a part of the results.

This test has as its target T1, OsWOX13 (Oryza sativa, UniProt Q5QMM3 1-267).
T1 sequence: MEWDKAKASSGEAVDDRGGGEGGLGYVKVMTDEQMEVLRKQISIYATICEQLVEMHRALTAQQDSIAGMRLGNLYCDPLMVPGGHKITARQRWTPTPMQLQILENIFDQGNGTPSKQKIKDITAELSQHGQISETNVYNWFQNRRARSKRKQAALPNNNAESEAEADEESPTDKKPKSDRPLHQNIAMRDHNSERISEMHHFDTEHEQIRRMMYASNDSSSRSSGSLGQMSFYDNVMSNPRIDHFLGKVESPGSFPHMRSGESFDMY
In words: protein-binding microarray (RPBM); PBS, 2% BSA, 51.3 ng/ul salmon testes DNA, 50 uM zinc acetate, 200 nM TF, 25 C, 1 h; high values mean tight binding. To be noted: protein: recombinant; tags: N-terminal polyhistidine and DsRed monomer fusion (pET32a); label: CyDye5-dUTP incorporated in the synthesized complementary strand; 3' TTTTT single-stranded linker to array surface; dsDNA, one strand shown. In short, it runs like this:
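Binding signal is reported as fluorescence intensity per feature (arbitrary units) from an Axon 4000B scanner. Incubation used 200 nM of each Ni–NTA-purified, N-terminally polyhistidine- and DsRed-fused transcription factor from E. coli BL21-CodonPlus on a double-stranded custom Agilent array for 1 h at 25 °C, with 50 µM zinc acetate in the buffer, followed by washing.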
Turning to “GTATAACTGGTTGAGTTGGTGTGTGGGGCTACCTTTCTTCCGGAGTCACCTAGTGCAG”, the binding signal is 5440 fluorescence intensity (a.u.).

With “GCATTATCATTTATATTTACTGATGGAAACACCTACTAATCGGAGTCACCTAGTGCAG”, the binding signal is 7460 fluorescence intensity (a.u.). Regarding “AGGCTATATCTACACTGTGTAATTGATAAGGATGAACTAACGGAGTCACCTAGTGCAG”, the binding signal was 10500 fluorescence intensity (a.u.). Regarding “ATGTTGATGAGAGGAATGAATTATTCCAGCACACTGGTACCGGAGTCACCTAGTGCAG”, the binding signal was 6030 fluorescence intensity (a.u.). For “ATAGAAGAAATTGACATTGGCACGCCACTTCTCAAAACTTCGGAGTCACCTAGTGCAG” the value was 10300 fluorescence intensity (a.u.); for “GTGTTTAAATTAATTTAAAAGTAAACTAAGTGTGGAAATACGGAGTCACCTAGTGCAG”, 25300 fluorescence intensity (a.u.). As for “TCCTAACTAGTTAATCACATGAGGAACACCATAACAATTCCGGAGTCACCTAGTGCAG”, the binding signal is 11500 fluorescence intensity (a.u.). As to “TTTCTGATCGATGCGCGGTTGATTGATCTTGGTGCGGACGCGGAGTCACCTAGTGCAG”, the binding signal is 20400 fluorescence intensity (a.u.). For “GGTCAAGATTTCTGGTATTGTGATTGAGGGATATGATTTACGGAGTCACCTAGTGCAG” the value was 8250 fluorescence intensity (a.u.); for “GTATAAATTTGGACAGATTGTGATTAGATTTATAGTCCTACGGAGTCACCTAGTGCAG”, 29800 fluorescence intensity (a.u.).

Take “AATCTGATTTAATAATCTGGATTACAATAATCTTAAGCTGCGGAGTCACCTAGTGCAG”: the binding signal was 33000 fluorescence intensity (a.u.). Consider “CACGGTAAATCACGAGTAATAATTTTAGGATTTAAGTTCTCGGAGTCACCTAGTGCAG”, for which the binding signal is 9550 fluorescence intensity (a.u.). Regarding “GTTAACTGAAACAGTCTGCTCTGAATTCTGAAGATTGCAACGGAGTCACCTAGTGCAG”, the binding signal was 11300 fluorescence intensity (a.u.).

With “ACTTTGTTAATGTAAATTAATGATCTCACTGTTCATACTACGGAGTCACCTAGTGCAG”, the binding signal was 21300 fluorescence intensity (a.u.). Take “CCCACACAGCATTCAGGCCTCGTTCTTCGCACTGGGCCCTCGGAGTCACCTAGTGCAG”: the binding signal was 6660 fluorescence intensity (a.u.).

Regarding “TTATTGTGGTAATTTGTGTATGTTGCTAATCTGCGATTCACGGAGTCACCTAGTGCAG”, the binding signal is 3450 fluorescence intensity (a.u.). “ACATAAACTGATATTTTAGAGTATTATTTTATCGAAGCGCCGGAGTCACCTAGTGCAG”: the binding signal is 13900 fluorescence intensity (a.u.).

On to “CAACAACGATTGTTTTAATTATTAGAGATTAGTGGATAACCGGAGTCACCTAGTGCAG”, for which the binding signal is 6060 fluorescence intensity (a.u.). Take “ATATTAACACACGATTAATTAAGTTTTAATTATTGAAAACCGGAGTCACCTAGTGCAG”: the binding signal is 14700 fluorescence intensity (a.u.). Consider “TATCTAAATTACTTTTAGATTTCACTAAGTTACTTCTTAACGGAGTCACCTAGTGCAG”, for which the binding signal is 7540 fluorescence intensity (a.u.). As to “GCAAGTGTGATTGATCATTACTTGCTTGGTCTGATGGTTGCGGAGTCACCTAGTGCAG”, the binding signal was 48300 fluorescence intensity (a.u.).

For the sequence “TCTGATTGACGGTGTTTGCAAGCAGAGTTCCTCTTCTTGGCGGAGTCACCTAGTGCAG”, the binding signal was 61500 fluorescence intensity (a.u.). As for “CTTAATTATCCTGATGAAAGGCTGAAATTTCAAGATCCAACGGAGTCACCTAGTGCAG”, the binding signal was 37600 fluorescence intensity (a.u.). Regarding “TCAATTAATCATGTGTTAATAACTCACGTCGTTTTACATACGGAGTCACCTAGTGCAG”, the binding signal was 3440 fluorescence intensity (a.u.). Take “GACAGTGATTGCGGCAGCGGCAGTCATAGGCGACGATGAGCGGAGTCACCTAGTGCAG”: the binding signal is 18800 fluorescence intensity (a.u.). For “GTTTAATTCACGCTAAAATTGGAACGGTGTGATGGAAAAGCGGAGTCACCTAGTGCAG” the value was 5360 fluorescence intensity (a.u.); for “TTTGGGCTAGCTCGTTGATTGACACGTCTCCTGAGCATTTCGGAGTCACCTAGTGCAG”, 22400 fluorescence intensity (a.u.); for “ATCGACAGATAATTAAATCGATCATCAAATGATCAATTTCCGGAGTCACCTAGTGCAG”, 4580 fluorescence intensity (a.u.). Take “CCTTTAATTGCAGAGTCAAGATGGACATAGTTATTTACACCGGAGTCACCTAGTGCAG”: the binding signal is 21100 fluorescence intensity (a.u.). The result for “TGATAATTTTGGCCATTCCTAATCTGCAAACAGATCATCTCGGAGTCACCTAGTGCAG” reads 8780 fluorescence intensity (a.u.); that for “GTTGATAGCTTATTTAATGTTATGGATACCATTCTAGTCACGGAGTCACCTAGTGCAG”, 18800 fluorescence intensity (a.u.). As to “GCAAAATTAATCTGTCCGTACGGCTGAATAATCCATTCCCCGGAGTCACCTAGTGCAG”, the binding signal is 5070 fluorescence intensity (a.u.). For “AGGTGATTGGTAAGGAAAATCGCAGACAAATCAACGGTCGCGGAGTCACCTAGTGCAG” the value was 47500 fluorescence intensity (a.u.). As for “GTATAATTAGTCTATGATTAGCCATAAGTACTACAGTAACCGGAGTCACCTAGTGCAG”, the binding signal is 43600 fluorescence intensity (a.u.). Turning to “AATAATTGTTTCTTAGTCTTTGGGTCAAAGGTGGTTGTGCCGGAGTCACCTAGTGCAG”, the binding signal was 37800 fluorescence intensity (a.u.). As to “CGTAACTCTATGATTTCTATCATCTTACATCTTGATCACTCGGAGTCACCTAGTGCAG”, the binding signal is 8490 fluorescence intensity (a.u.). With “GATTTAATATGATTAGATTACAATTACAACAGATTAGAGCCGGAGTCACCTAGTGCAG”, the binding signal is 37500 fluorescence intensity (a.u.). Regarding “CTATTAGATTGGTTATAGATTAATTGGAGCTAATAATAGGCGGAGTCACCTAGTGCAG”, the binding signal is 46300 fluorescence intensity (a.u.). Regarding “TCCTCCTCCTCGATTGATTGCCCTCCTCTTCTCCCTCCTCCGGAGTCACCTAGTGCAG”, the binding signal is 19800 fluorescence intensity (a.u.). On to “TCTACTAATTGGTCGAACTTTCAATATAGAATTACAAAATCGGAGTCACCTAGTGCAG”, for which the binding signal was 4970 fluorescence intensity (a.u.). For “AGATATAACAGCCAATCATATTTTCGGCCCTCATCAGTAACGGAGTCACCTAGTGCAG” the value was 20200 fluorescence intensity (a.u.); for “ATAAATGGGCTATTAGATTGACTATAAATGATTTGGAGCCCGGAGTCACCTAGTGCAG”, 57100 fluorescence intensity (a.u.); for “TCGCAAAAGAAATATAATTAATTCACAATGTAATAGGACGCGGAGTCACCTAGTGCAG”, 3220 fluorescence intensity (a.u.). On to “CAGTGACAGAGCAAACCATGATTTGAGAGAAGGAGCATATCGGAGTCACCTAGTGCAG”, for which the binding signal was 9960 fluorescence intensity (a.u.). The result for “CGTCGAAGGTGATTAGCGCGCACGCGTAGTGCCCGGGCCTCGGAGTCACCTAGTGCAG” reads 4320 fluorescence intensity (a.u.). Turning to “AGGCACAATCATTGGAATATACGAATATAAGACAAGTGTGCGGAGTCACCTAGTGCAG”, the binding signal is 11700 fluorescence intensity (a.u.).

“GCCAATCTATCAATCCACCCCTTTTAGCTAGTAAATCTATCGGAGTCACCTAGTGCAG”: the binding signal is 10700 fluorescence intensity (a.u.). With “TAATCATAATTTTGTCAGTCCTTTTACATACCGACCTTGACGGAGTCACCTAGTGCAG”, the binding signal is 5420 fluorescence intensity (a.u.). On to “ACGAATTAATTAGGCTTAATAAATTCGTCTCGCAGTTTACCGGAGTCACCTAGTGCAG”, for which the binding signal is 35100 fluorescence intensity (a.u.).

For the sequence “CTAAAATTGTAGCAATTGACAAAACAATTGCAGTTTTATGCGGAGTCACCTAGTGCAG”, the binding signal is 11600 fluorescence intensity (a.u.). For “TATATTTATTATTTGCAGTTAATTATGTTACAAATAATAACGGAGTCACCTAGTGCAG”, the binding signal was 4460 fluorescence intensity (a.u.).

As for “GGTTTGCATGATAGACTCGTTACTGTCACAGGACCCTTGGCGGAGTCACCTAGTGCAG”, the binding signal is 4290 fluorescence intensity (a.u.). The result for “TTTGATAGGGAGGATTGGCTCCAGCATTGTACGAGAACTACGGAGTCACCTAGTGCAG” reads 19900 fluorescence intensity (a.u.); that for “AGTTCGCTGATCACCCAATCACCATTCGGTCTTCCATTCACGGAGTCACCTAGTGCAG”, 7150 fluorescence intensity (a.u.).

The record behind these values is article PMC7819943, “Rice protein-binding microarrays: a tool to detect cis-acting elements near promoter regions in rice”.
